From patent US20250026844A1 (SHANDONG SIMCERE BIOPHARMACEUTICAL, published 2025)
Numbering of substitutions follows the chain as printed. Where two headings read alike, the source gives them in different places.

How the values were obtained:
[1] = target: T1, human BCMA on cells (human, UniProt Q02223 1-184); assay: FACS, H929 cells
T1 construct: whole, on cells; also called H929 cells; U266 cells
T1 sequence (looked up): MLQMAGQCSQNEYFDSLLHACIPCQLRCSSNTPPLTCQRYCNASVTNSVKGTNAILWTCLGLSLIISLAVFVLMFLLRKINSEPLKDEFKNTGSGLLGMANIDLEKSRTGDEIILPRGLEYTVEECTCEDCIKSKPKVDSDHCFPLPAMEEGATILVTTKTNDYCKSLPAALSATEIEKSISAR

[2] = target: T1, human BCMA on cells; assay: FACS, U266 cells
[3] = target: T2, human BCMA-His protein (human, UniProt Q02223 1-54); assay: SPR (Biacore), antibody captured on Protein A chip, BCMA-His in solution
T2 construct: Bought protein; also called human BCMA protein; huBCMA-His; not shown: His tag
T2 sequence (looked up): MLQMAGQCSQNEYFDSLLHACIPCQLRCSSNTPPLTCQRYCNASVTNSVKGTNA

[4] = target: T1, human BCMA on cells; assay: FACS, U266 cells; remark: listed apart in the source
[5] = target: T2, human BCMA-His protein; assay: SPR (Biacore), antibody captured on Protein A chip, BCMA-His in solution; remark: listed apart in the source
[6] = target: T1, human BCMA on cells; assay: FACS, H929 cells; remark: listed apart in the source

B1: BCMA-Lab01-VHH1 (Fc fusion)
heavy: EVQLVESGGGLVQPGGSLRLSCSASGFTLDYYMMGWFRQAPGKEREGVSSISPADGSTYYADSVKGRFTISRDNSKNTLYLQMNSLRAEDTAVYYCAAGNEATISWGFGPWEYDYWGQGTMVTVSS[human IgG1 Fc with C220S (EU numbers) skipped]
notes: Humanized VHH-Fc; no linker stated
For B1, the EC50 [1] was 4.08 nM, the “Maximum mean fluorescence intensity” value [1] was 6350 MFI and the EC50 [2] was 5.43 nM. The “Maximum mean fluorescence intensity” value [2] was 1030 MFI, the Kd [3] was 7.07 nM and the koff [3] was 0.00841 s⁻¹. For the same binder, the kon [3] was 1.19e+06 M⁻¹ s⁻¹.

B2: BCMA-Lab01-VHH2 (Fc fusion)
heavy: B1 heavy with N74S
notes: as for B1
In the case of B2, the EC50 [1] is reported as 4.22 nM, the “Maximum mean fluorescence intensity” value [1] is reported as 6620 MFI and the EC50 [2] is reported as 6.75 nM. For the same binder, the “Maximum mean fluorescence intensity” value [2] was 1300 MFI, the Kd [3] was 3.48 nM and the koff [3] was 0.00361 s⁻¹. It also gave a kon [3] of 1.04e+06 M⁻¹ s⁻¹.

B3: BCMA-Lab01-VHH3 (Fc fusion)
heavy: B1 heavy with M34I, N74S, L79V
notes: as for B1
Binder B3 has an EC50 [1] of 2.85 nM, an EC50 [2] of 3.48 nM and a Kd [3] of 1.2 nM. The koff [3] was 0.00138 s⁻¹ and the kon [3] was 1.15e+06 M⁻¹ s⁻¹.

B4: BCMA-Lab01-VHH4 (Fc fusion)
heavy: B1 heavy with M34I, N74S, S75A, L79V
notes: as for B1
For B4, the EC50 [1] was 2.88 nM, the “Maximum mean fluorescence intensity” value [1] was 8230 MFI and the EC50 [2] was 3.99 nM. For the same binder, the “Maximum mean fluorescence intensity” value [2] was 1610 MFI, the Kd [3] was 1.2 nM and the koff [3] was 0.00137 s⁻¹. It also gave a kon [3] of 1.14e+06 M⁻¹ s⁻¹.

B5: BCMA-Lab01-VHH5 (Fc fusion)
heavy: B1 heavy with M34I, N74S, L79V, V93L, M121Q
notes: as for B1
B5 was tested, and the EC50 [1] was 3.82 nM, the “Maximum mean fluorescence intensity” value [1] was 9090 MFI and the EC50 [2] was 4.01 nM. For the same binder, the “Maximum mean fluorescence intensity” value [2] was 1590 MFI, the Kd [3] was 1.17 nM and the koff [3] was 0.00141 s⁻¹. For the same binder, the kon [3] was 1.2e+06 M⁻¹ s⁻¹.

B6: BCMA-Lab01-VHH6 (Fc fusion)
heavy: B1 heavy with M34I, V48L, N74S, L79V
notes: as for B1
In the case of B6, the EC50 [1] is reported as 3.5 nM, the “Maximum mean fluorescence intensity” value [1] is reported as 10100 MFI and the EC50 [2] is reported as 3.25 nM. For the same binder, the “Maximum mean fluorescence intensity” value [2] was 1750 MFI, the Kd [3] was 0.613 nM and the koff [3] was 0.000802 s⁻¹. It also gave a kon [3] of 1.31e+06 M⁻¹ s⁻¹.

B7: BCMA-Lab01-VHH7 (Fc fusion)
heavy: B1 heavy with E1Q, M34I, N74S, L79V
notes: as for B1
Work on B7 yielded an EC50 [1] of 3.06 nM, an EC50 [2] of 3.71 nM and a Kd [3] of 1.32 nM. For the same binder, the koff [3] was 0.00147 s⁻¹ and the kon [3] was 1.11e+06 M⁻¹ s⁻¹.

B8: BCMA-Lab15 (Fc fusion)
heavy: QLQLVESGGGLVQPGGSLRLSCAGSGFTLDYYMIGWFRQAPGKEREGLSCISPADGSTYYADSVKGRFTISRDSAKNTVYLQMNSLKPEDTALYYCAAGNEGGISWGFGPYEYDYWGQGTQVTVSS[human IgG1 Fc with C220S (EU numbers) skipped]
B8 was tested, and the EC50 [4] was 2.03 nM, the “Maximum mean fluorescence intensity” value [4] was 1340 MFI and the Kd [5] was 0.887 nM. The koff [5] was 0.00219 s⁻¹, the kon [5] was 2.47e+06 M⁻¹ s⁻¹ and the EC50 [6] was 4.12 nM. For the same binder, the “Maximum mean fluorescence intensity” value [6] was 4650 MFI.

B9: BCMA-Lab17 (Fc fusion)
heavy: B8 heavy with L2V, A23T, P53S, A54G, S74N, L93V, G102A, G103T, S105T, Y111W
For B9, the EC50 [4] was 0.98 nM, the “Maximum mean fluorescence intensity” value [4] was 1010 MFI and the Kd [5] was 4.25 nM. It also gave a koff [5] of 0.0176 s⁻¹, a kon [5] of 4.15e+06 M⁻¹ s⁻¹ and an EC50 [6] of 1.74 nM. The “Maximum mean fluorescence intensity” value [6] was 3310 MFI.

B10: BCMA-Lab02-VHH3 (Fc fusion)
heavy: EVQLVESGGGLVQPGGSLRLSCAASESISSIHIMAWYRQAPGKQRELVAGIRNDGSTYYVDSVKGRFTISRDNAKNSLYLQMNSLRAEDTAVYYCNADQGFGSYSEWERRSRWGQGTTVTVSS[human IgG1 Fc with C220S (EU numbers) skipped]
notes: as for B1
B10 was tested, and the EC50 [1] was 2.27 nM, the “Maximum mean fluorescence intensity” value [1] was 9830 MFI and the EC50 [2] was 3.02 nM. For the same binder, the “Maximum mean fluorescence intensity” value [2] was 1750 MFI.

B11: BCMA-Lab02-VHH4 (Fc fusion)
heavy: B10 heavy with Y58V
notes: as for B1
In the case of B11, the EC50 [1] is reported as 1.45 nM, the “Maximum mean fluorescence intensity” value [1] is reported as 10100 MFI and the EC50 [2] is reported as 1.18 nM. For the same binder, the “Maximum mean fluorescence intensity” value [2] was 1760 MFI, the Kd [3] was 0.146 nM and the koff [3] was 0.000137 s⁻¹. The kon [3] was 937000 M⁻¹ s⁻¹.

B12: BCMA-Lab02-VHH5 (Fc fusion)
heavy: B10 heavy with Q39R, Y58V
notes: as for B1
B12 showed an EC50 [1] of 1.33 nM, a Kd [3] of 0.132 nM and a koff [3] of 0.000103 s⁻¹. The kon [3] was 784000 M⁻¹ s⁻¹.

B13: BCMA-Lab02-VHH6 (Fc fusion)
heavy: B10 heavy with Y58V, V60A
notes: as for B1
With B13 the EC50 [1] was 1.54 nM, the “Maximum mean fluorescence intensity” value [1] was 10100 MFI and the EC50 [2] was 1.86 nM. For the same binder, the “Maximum mean fluorescence intensity” value [2] was 1830 MFI.

B14: BCMA-Lab02-VHH7 (Fc fusion)
heavy: B10 heavy with Y58V, L78V
notes: as for B1
For B14, the EC50 [1] was 0.39 nM, the “Maximum mean fluorescence intensity” value [1] was 9840 MFI and the EC50 [2] was 0.74 nM. For the same binder, the “Maximum mean fluorescence intensity” value [2] was 1850 MFI, the Kd [3] was 0.0882 nM and the koff [3] was 7.1e-05 s⁻¹. For the same binder, the kon [3] was 805000 M⁻¹ s⁻¹.

B15: BCMA-Lab02-VHH8 (Fc fusion)
heavy: B10 heavy with Q39R, Y58V, T118E
notes: as for B1
B15 showed an EC50 [1] of 1.49 nM.

B16: BCMA-Lab11 (Fc fusion)
heavy: QVQLVESGGGLVQPGGSLRLSCAASGSIFSIYAMGWYRQAPGKQRELVAAITSGTNTYYRDSVKGRFTISRDNAKNTVYLQMNSLKPEDTAVYSCNVAPWGDYDGAADFVSWGQGTQVTVSS[human IgG1 Fc with C220S (EU numbers) skipped]
In the case of B16, the EC50 [4] is reported as 2.03 nM, the “Maximum mean fluorescence intensity” value [4] is reported as 1360 MFI and the Kd [5] is reported as 0.217 nM. For the same binder, the koff [5] was 0.00126 s⁻¹, the kon [5] was 5.83e+06 M⁻¹ s⁻¹ and the EC50 [6] was 4.03 nM. The “Maximum mean fluorescence intensity” value [6] was 5100 MFI.

B17: BCMA-Lab14 (Fc fusion)
heavy: B16 heavy with Q1E, L4V, S30N, T55G, N56S, D61E, V78M, S94Y, V110D
For B17, the EC50 [4] was 3.5 nM, the “Maximum mean fluorescence intensity” value [4] was 1300 MFI and the Kd [5] was 0.56 nM. For the same binder, the koff [5] was 0.00248 s⁻¹, the kon [5] was 4.43e+06 M⁻¹ s⁻¹ and the EC50 [6] was 5.6 nM. The “Maximum mean fluorescence intensity” value [6] was 4960 MFI.

B18: BCMA-Lab12 (Fc fusion)
heavy: QLQLVESGGGLVQAGGSLRLSCEASGSIFSINAIGWFRQAPGKEREGVSCISRSDGKTYYADSVKGRFTISRDNAKNTVYLQMNSLKPEDTAVYYCATDPSTRYGCYDPALFDSWGQGTQVTVSS[human IgG1 Fc with C220S (EU numbers) skipped]
In the case of B18, the EC50 [4] is reported as 4.29 nM, the “Maximum mean fluorescence intensity” value [4] is reported as 858 MFI and the Kd [5] is reported as 14.9 nM. The koff [5] was 0.0103 s⁻¹, the kon [5] was 692000 M⁻¹ s⁻¹ and the EC50 [6] was 9.36 nM. The “Maximum mean fluorescence intensity” value [6] was 4570 MFI.

B19: BCMA-Lab02-VHH1 (Fc fusion)
heavy: B10 heavy with A35S, G50N
notes: as for B1
B19: no binding [1].

B20: BCMA-Lab02-VHH2 (Fc fusion)
heavy: B10 heavy with G50N
notes: as for B1
B20: no binding [1].
